# Measurements reported in paper PMC10726135.
# The other results are listed elsewhere or left out. At the low end of the ranking, values are background and their order means little. Measured with an extract: partners may take part in the binding.
# Target: T1, HNF4alpha8 (COS-7 nuclear extract) (UniProt P41235-5)
# T1 sequence: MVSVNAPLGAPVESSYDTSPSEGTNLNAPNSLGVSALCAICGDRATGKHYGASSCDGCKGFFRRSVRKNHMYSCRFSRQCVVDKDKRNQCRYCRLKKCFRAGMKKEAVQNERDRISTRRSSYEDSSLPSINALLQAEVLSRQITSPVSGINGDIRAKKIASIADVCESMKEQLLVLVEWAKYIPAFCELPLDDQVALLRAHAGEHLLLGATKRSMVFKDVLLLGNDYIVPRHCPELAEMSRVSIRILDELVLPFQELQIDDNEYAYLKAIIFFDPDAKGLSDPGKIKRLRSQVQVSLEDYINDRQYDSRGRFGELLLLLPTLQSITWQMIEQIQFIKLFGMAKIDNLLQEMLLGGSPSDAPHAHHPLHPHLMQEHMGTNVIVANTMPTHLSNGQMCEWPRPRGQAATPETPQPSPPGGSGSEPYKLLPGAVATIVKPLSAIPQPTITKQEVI
# Assay: protein-binding microarray
# Conditions: COS-7 nuclear extract on double-stranded Agilent 4x180k PBM; binding buffer, salt, pH and temperature not given; high values mean tight binding; double strand, one strand shown; sequences stand for … in …GCCTAGGGAGATTAGAGTATCGGTCGA
row,Sequence,binding signal (log2 normalized intensity)
1,GGAAAGATCAGCTGAAAACTATGCATGCTG,-1.3
2,GACATTCCAGCCACTAAGAAGCCCAAGGTT,-1.31
3,AGGACGTCAGGCAGAGAGGGACTCTGACCC,6.01
4,ACTCTCAATTCAAGTATGCACCCTTATCAG,0.459
5,GGTAGAGGGACACTGATAACATGAGGATAC,-1.3
6,CCACTGAGGTCAAGATAAGATACGAAGGGT,-0.296
7,AATCAGGAGCAAAGGTTGGGGGTGGGGAGG,0.505
8,CCAGTTGAGTGCAAAGTCCCTAGAAGGGAT,1.94
9,TTCATAACCAAAGGATTATTACATGTTTAC,0.879
10,AGAAGCTCCAGAAATACAGAAGCTGCTCTA,-1.26
11,AATACTCTGAGTAAACACAGACTTTGGAAT,4.55
12,CTATCACTGGGAGATAATGCACTGGTGACT,0.386
13,TTACAGGTTGCAGTAAAGAAACTGGCTAAA,-1.16
14,GAAAACAGAGAAGCCGTGGTGCTGTCCAAG,-1.34
15,GAATTTTGGACAAGGTAACCCCCAACATTC,3.79
16,GTTGAATGGACGGACAGGTAACGTAAACAA,-1.06
17,GAAAATGCAAGGAAATGGATTGCCTCCTAA,-1.22
18,GGATGTGTGATCTTGGGTAAGCCACTGAAC,1.3
19,CTTCCCAGCTGCTGGTCAAAGGGCATTACT,5.83
20,CTTCTCTTTGAGTCCCAATCCCCCATCTAT,4.09
21,GACCCCTTTCATGAATAAATGACATAGTGA,2.27
22,GTGGCCAGGCTGCGTTTCAAAGCCAGGACT,-1.31
23,TTTTGTGTTAGAGGGTGGTGGGTGAAGGAT,1.18
24,ATATGTCTTAAGCTAACATGTACAGTATTG,0.993

row,Sequence,binding signal (log2 normalized intensity)
1,TGATGTTAACACAAGTTATTACCGTGATGT,1.13
2,GAATGCTTGTCTAGTAATTGCTACTTCCGG,-0.0902
3,AGTTTTTACTGGACTTGATCCATTCTACCC,1.47
4,AGAAAACGTTCACGTCTCAAGCTTCAGGAG,-1.34
5,GGACTTGGTAAAGTCAATAATCTAGAAACC,0.338
6,CCCTCCCACGCACTCGCCTGACTCCCTGAC,2.65
7,CAAGCCCCTGACCAAGGGTCATGCTGGTCT,3.27
8,GGTGTGGGGGTGGAGAAGGAAGGGGAAGAT,-1.27
9,ACCCAAGCGGCCATTTACTGACTAAAGGTT,2.19
10,ACACTTAGAGATAAGGTAACAGGCCAAAGG,1.9
11,GGATGGCATGTCTCTGGTCGGGGAGGTGTT,1.18
12,ATATCTATATGTTTACATATCACTGTACTC,2.31
13,GCCTGCATTGGAGGCCCTCTGTTGCTTCAA,-1.37
14,CCAGCTGGTAAATAAAGGAACTTACGAAGA,-1.25
15,GAGATTCCTCTGCACAATAAAACTTGGTCG,0.0287
16,AAGGGAGTAAAGGTCGTTCTATCGGAGAAC,4.32
17,GAAGGTCCTTCACTAAAGTTACAAGATCTT,-0.246
18,TAACCTTTGGGTGTGTTCAGCGAGGAATGT,1.71
19,CCCTTGATCAAAAACTGCCTAAATCCAAAG,-1.42
20,ACGCTGGTCAGCATCCTGCTTGTGAGACCG,-1.41
21,CTTTAGTTCAGGGAAGAGGGCACTCAGGCT,-1.29
22,CGGGGGCCCTTCCCCCCTCTGCAGCCTTAC,3.05
23,TCAGCTCATTCAAAGTCCAAAAAGAATCAG,2.2
24,CTCCAGACACGGGGATAACACCTGCCTTAG,-1.38

row,Sequence,binding signal (log2 normalized intensity)
1,ATTTGTTAAGAACTGGAGTAAAGGTCACTC,4.84
2,AGTAAGCATGCCTTACCATTGCTTTCTTCC,-1.49
3,GTGGTCCTAAAATTGACCTTTGATCACTCA,10.2
4,GACCTTCACCAGATACTGAATCTCCCAGTG,-1.29
5,CACACCTCCCTTGCACCAGTTTCTCAACAG,-1.31
6,AGCCAAGGAGAGAGGCCTCTAGATAAACCA,-1.41
7,TGCAAACATTGGTTGCAAAAACAATCAGGG,-1.23
8,GCTTTTGGGCAGAGACTATGTGGTTTTGTA,1.34
9,TAAGGTGGGAATGCTGATCAAGTGTCTCTA,-0.0604
10,GACCTCTGGACCTCATCTTCCTCCCCAATA,4.6
11,CCCCTAGTATATTGGCTTGGCTGTGTCCCT,1.34
12,CTCAGGTCAGGGAAGACTGATAAGAAAACT,-1.05
13,TTTGCGGCCATCTAGCTACAGGAGAACAAA,-1.09
14,ACCCCTGAATTGGTCATAATTCTCAAACTT,-0.0236
15,TAAATGAGAAGAAATGATGGGTGCCACTTC,-1.33
16,GTGAACTGTGACCTGATGACAAAGGTGAGA,2.24
17,TCCAAATACGATAATGTCAAACATCTTATA,-0.884
18,AAGATGCAACCCCGTTTACTTTTGTACACA,1.74
19,AGCTGTGTGCTCCTGTAGAATGACCCCCTG,5.57
20,TGAGGCCAGTTTTCCCAAAGGAGCTTTATT,-1.1
21,GTTCAGGGAAGAGGGCACTCAGGCTCTCAG,-1.19
22,ACAGCACTGACCTTTGAGAGTCAACACTGA,3.53
23,AGAGCAAGGGTCCAGATTAGAGCACAATGT,0.68
24,CCAGCTGGTAAGTGCAAGGCCCAGCTAGAA,-1.34

row,Sequence,binding signal (log2 normalized intensity)
1,GCATTAACATCAACATGGACTTTGAGTCAT,6.9
2,CTCTGCTGATAGCATAAAGCTAGGAGACAA,-1.32
3,CGCTAACTTCCAGATCAAAGGACATTTCTA,0.989
4,GGCAAGACTGCCACCTACTGACCAAATGGG,-1.47
5,TGGAGCCACTATTCATAAAGTTCTCTGGCA,-1.15
6,TGGTAATCTCTTTTGTGTTAGAGGGTGGTG,1.51
7,GCTAAAAGCAGCATCCCTGATAAACCTGTT,-1.36
8,TTGCAAATAAAAGTTATCACCATCAGATCT,-1.38
9,CAGCTGGGGCCCAGGTCGAAGTTTATGTTT,2.45
10,CCACAGAAACGCAGTCCTGAAAACACACAT,-1.34
11,GGAATGTCTGACCAACCTGTCCAAAGGTCA,8.5
12,TTGGCAGATTAGATATATCTGTACTCAAAC,0.452
13,AGAAGACAAAACAGCGTACTGTGCTAAAGA,-1.27
14,TTCCCTTTGATCTTTCCCTTCCTGGCCAAC,1.15
15,AGAGCCTAGTTCATTGCAATTACTCAATAA,-1.28
16,CCCCCGGACCCAAAGTAAACAAAGATACTC,2.88
17,GAGTAAATACGAACCGTCGTAATGGCTAAG,-1.14
18,TAACTTGAATTGATTGCCAAGAGGGAGGGG,-1.38
19,AGGATGGAATGCTGAAGGGAAGGCTGCCGT,-1.14
20,AACGAGATGGTCAAGGATCTGGCCAGGCCT,-1.37
21,AGTGGTTAAGTTTTCGAGGAGTCAAAAGGT,1.41
